From article PMC12136788 come the findings set out here.

To fix the notation:
B1: chr19:38862671:38862672:-_ENSMUSG00000024999_ENSMUST00000025963|mus_hu|FALSE|FALSE (ssRNA)
RNA: GGGAGUUCUACAGUCCGACGAUCUAUAAUCUAGUCACUGAAACACGCAUUUCUUAGGCCACUCCUAGAAUAUGGGAAUAGCUGUUACAUAAAAUACUGUUUUAUAAUUAUAUUAAUAAGAAAAAGCAUUUUACCUGUUCCAAGCAACAGAGGAUUGAGCAUCA
B2: chr7:141443734:141443735:+_ENSG00000106028_ENST00000265304|hu_hu|FALSE|FALSE (ssRNA)
RNA: GGGAGUUCUACAGUCCGACGAUCCCCCUUUUUCACAUAUUGAUAUGCCACGUCUCUGAGGCCUGGCCGGAAUACUGAUAUUCUGUGCCAUGUUGUCUUUUGACUGACAUCACCCAGUUGGUAAACUUCACUAUCCCCUGAUCGCAACAGAGGAUUGAGCAUCA
B3: chr1:33854737:33854738:-_ENSMUSG00000042197_ENSMUST00000044455|mus_mus|motif|central (ssRNA)
RNA: GGGAGUUCUACAGUCCGACGAUCGGUAACUUCCUCCUUUAAAAUUUAAGUGAAAAGAACUAACUAGUUUGUAUGCCCACGGAAAACCAUACAGAACCAAUCUGACCAAUUGAAUGACAUGCAUAAGAUAUACCCACAGUGACACAACAGAGGAUUGAGCAUCA
B4: chr7:141438946:141438947:+_ENSG00000106028_ENST00000265304|hu_mus|hu_hu_hu_mus_True|28_98 (ssRNA)
RNA: GGGAGUUCUACAGUCCGACGAUCGACGAAAUACCUGACAGGUCUUCCUUCGAAACAUGGCUUCUGUUUUUCUUACAACCUAAUCUUUAGGCUUUUCCUAAAGGAAAAACCCGAGCAAGAAAAAUGAUAAAUCAAGAAACUACACAACAGAGGAUUGAGCAUCA
B5: chr12:96259795:96259796:+_ENSG00000139343_ENST00000266735|hu_mus|FALSE|FALSE (ssRNA)
RNA: GGGAGUUCUACAGUCCGACGAUCGAGGACAUUAUUACACCUUAUUAGAACUUCGCCCAGAUGUCCAGACAGCGCCCCAUCUAUGUACUCUUCUGUAUUUGCAAGCUGCAUGUUCAUGUAGCCAUCCACGGAGACCAGGUAGCCCAACAGAGGAUUGAGCAUCA
B6: chr4:144460044:144460045:+_ENSG00000153147_ENST00000283131|hu_mus|hu_hu_hu_mus_False|48_58 (ssRNA)
RNA: GGGAGUUCUACAGUCCGACGAUCACGGUCCAUAGCCUGAAGAUCAACUUGCGGAUUCCAAUCUGAGUCAUAUAAAAUUACUACAUCAGCAGUCGCAAGAUUGAUGCCCAGACCACCAGCACGUGUGCUUAGCAUAAAUACAAACAACAGAGGAUUGAGCAUCA
B7: chr11:120668454:120668455:-_ENSMUSG00000025153_ENSMUST00000055655|mus_hu|FALSE|FALSE (ssRNA)
RNA: GGGAGUUCUACAGUCCGACGAUCGAGAUCACAUGCGGUUUAAUUGUGGGAGGCUGAGAGCAGCAUUUUUACCAAAUUGGUGUAAAAAUGAAACGGGGUCCAGACGUGUACACUGACAGUUACAGUAAAUUUCAAAAUCCAAGCCAACAGAGGAUUGAGCAUCA
B8: chr2:14037654:14037655:+_ENSMUSG00000026718_ENSMUST00000102960|mus_hu|FALSE|FALSE (ssRNA)
RNA: GGGAGUUCUACAGUCCGACGAUCAUGACCCUUAUUUAAUACGUUGCUUACUUCACUAGCAAAAUCUCUUGAACAUACUUCUAAAUGAAAAAUUUUGCCACAGUUUGAUACACAUGCUCCUAGAAGAGUCAAAGCCUGCAUAGCCAACAGAGGAUUGAGCAUCA
B9: chr3:139075876:139075877:+_ENSG00000175110_ENST00000310776|hu_mus|motif|central (ssRNA)
RNA: GGGAGUUCUACAGUCCGACGAUCCCAAGAUUUUUAAAUGUUCAGCUUAGUAUUACCAAAAUGGAAGGGCAUUACGGUGAAAUGUGUUUUUAACUGUUCUCAGGAUGCUGCGGAAUGACUGGUAACUAUUUCUUGAUAAGUUUGCAACAGAGGAUUGAGCAUCA
B10: chr4:115894766:115894767:+_ENSMUSG00000028698_ENSMUST00000030464|mus_hu|mus_mus_mus_hu_True|18_88 (ssRNA)
RNA: GGGAGUUCUACAGUCCGACGAUCUUCCACACGGAAAUGUACUUCGGGUUUCCAACGGGCCAGUACCAGUCCGGCCAAACUACCCGAACAGGGUCCUCCCCCUCUCUCCUACAGAACUAAAGCACCCGCCCCCGAACUUUCAAGCAACAGAGGAUUGAGCAUCA
B11: chr12:105553856:105553857:+_ENSG00000136051_ENST00000332180|hu_hu|FALSE|FALSE (ssRNA)
RNA: GGGAGUUCUACAGUCCGACGAUCAAUUAUAUAGAAAUUUCGGAGAUGUAUAUUCUUUGGCCUUCGAAAUUCUGGAGCAAAAACGUCUACAAGCAUUUUGAAAUAUUCUGUGCCUUCGGCAGAAUUUCGUGUGUGAUCACUGAGCAACAGAGGAUUGAGCAUCA
B12: chr2:217012863:217012864:+_ENSG00000079246_ENST00000392132|hu_hu|FALSE|FALSE (ssRNA)
RNA: GGGAGUUCUACAGUCCGACGAUCGAGAGGAAUCUGACUUUUUGUUGUCACCUCAGCGGGAGGAUUCAGCAUAUUCCAAAUAUGCUGCUGAAUUGGGGGUAGAGGCUCCCGGGGAUGUAAAGCUCUGUGCAGCAGACACUGAAACAACAGAGGAUUGAGCAUCA
B13: chr14:66974463:66974464:+_ENSMUSG00000022044_ENSMUST00000074523|mus_hu|mus_mus_mus_hu_False|58_88 (ssRNA)
RNA: GGGAGUUCUACAGUCCGACGAUCUUGUAGGACGACUUAUUCAGGGGAUCAGACAAGAAGCAGGAGCAGAACAAGGACACUAGUGGGAGCUCCUUCAUCUUCUCUUUGUAGGCAGCAAGGGUCAUGUUUCUGGGAUCUGGUGGCCAACAGAGGAUUGAGCAUCA
B14: chr5:135510151:135510152:+_ENSG00000113658_ENST00000545279|hu_mus|FALSE|FALSE (ssRNA)
RNA: GGGAGUUCUACAGUCCGACGAUCGAGGCUGCAGCUGCUGGGGAUCUUACAGACGGUGGUGGGAUGGAAGCCAUGGUGAAAGUUGCAGUUCCUACUCUGAACAAAGAUGCUGCUGUCACUAAGACACUCAGCGUACACCUCCCCCAACAGAGGAUUGAGCAUCA

The list shows a part of the results.

The target of this experiment is T1, UNK ZnF1-3 (human, UniProt Q9C0B0 31-174).
T1 sequence: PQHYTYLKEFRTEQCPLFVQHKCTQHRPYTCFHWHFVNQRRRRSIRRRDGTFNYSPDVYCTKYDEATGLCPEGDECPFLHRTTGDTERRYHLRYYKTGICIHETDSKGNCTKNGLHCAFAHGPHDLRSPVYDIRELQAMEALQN
Put plainly: nsRBNS (natural sequence RNA bind-n-seq); RBNS binding buffer (assumed for nsRBNS): 25 mM Tris pH 7.5, 150 mM KCl, 3 mM MgCl2, 0.01% Triton X-100, 500 ug/ml BSA, 20 U/ml SUPERase-In, 4 C; UNK is unkempt and MSI1 is Musashi-1; names of the RNAs are library labels; protein concentration not given here; high values mean tight binding.
Turning to B1, the binding signal amounted to 1.02 enrichment R.
B2 came in with a binding signal of 0.7 enrichment R.
In the case of B3, the binding signal was found to be 1.24 enrichment R.
The value for B4 was 0.566 enrichment R; that for B5 was 0.931 enrichment R.
The value for B6 was 1.08 enrichment R; that for B7 was 3.07 enrichment R; that for B8 was 1.62 enrichment R.
The same measure for B9: 1.18 enrichment R; for B10: 1.2 enrichment R.
The molecule B11 came in with a binding signal of 0.936 enrichment R.
Take B12: the binding signal is 1.66 enrichment R.
The same measure for B13: 2.1 enrichment R.
Turning to B14, the binding signal was found to be 1.42 enrichment R.
